The full ranking holds about 81,000 sequences; the median of “one-hybrid fitness for binding NBS DNA” is about -0.1, and the highest 2% start at about 0.36. The list shows a part of the results.
B1: Caulobacter ParB omega fusion; a variant is named by its letters at X, in order, B8GW30 (parent)
chain: MESVVVGEPGMSEGRRGLGRGLSALLGEVDAAPAQAPGEQLGGSREAPIEILQRNPDQPRRTFREEDLEDLSNSIREKGVLQPILVRPSPDTAGEYQIVAGERAWRAAQRAGLKTVPIMVRELDDLAVLEIGIIENVQRADLNVLEEALSYKVLMEKFERTQENIAQTIGKSXSHVANXMRLLXLPDEVQSYLVSGELTAXHARAIAAAADPVALAKQIIEGGLSVRETEALARKAPNLSAGKSKGGRPPRVKDTDTQALESDLSSVLGLDVSIDHRGSTGTLTITYATLEQLDDLCNRLTRGI

Variants of: B1
Assay: one-hybrid fitness for binding NBS DNA (the Noc-binding site; scaled: cognate 1, non-cognate 0); higher = stronger binding
Settings: with NBS DNA site
Method in brief: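 Bacterial one-hybrid selection in E. coli USO rpoZ- hisB- pyrF- with a HIS3 reporter carrying the site 19 bp from the promoter, screening Caulobacter ParB libraries with four specificity codons randomised (NNS). Cells grew 48 hours at 37°C on M9-minus-histidine plus 0.1 mM IPTG and 5 mM 3-AT. Plasmids before and after selection were Illumina-sequenced, three replicate libraries pooled, and variants under 10 reads dropped. Fitness is the log change in variant-to-wild-type read ratio, rescaled to cognate 1, non-cognate 0.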

Row | Variant | one-hybrid fitness for binding NBS DNA
1 | CAWS | ≤ 0.2
2 | MTWT | ≤ 0.2
3 | HTCR | ≤ 0.2
4 | DTDY | ≤ 0.2
5 | VALR | ≤ 0.2
6 | PVYG | ≤ 0.2
7 | KCAC | ≤ 0.2
8 | DVVR | ≤ 0.2
9 | WFST | ≤ 0.2
10 | RDYE | ≤ 0.2
11 | FEVF | ≤ 0.2
12 | TKTS | ≤ 0.2
13 | DPLY | ≤ 0.2
14 | DKKT | ≤ 0.2
15 | TQEV | ≤ 0.2
16 | CNLS | ≤ 0.2
17 | HKDC | ≤ 0.2
18 | ERNY | ≤ 0.2
19 | RHVL | ≤ 0.2
20 | HPQI | ≤ 0.2
21 | GMQC | ≤ 0.2
22 | STMF | ≤ 0.2
23 | LWRF | ≤ 0.2
24 | MWES | ≤ 0.2
25 | MNFI | ≤ 0.2
26 | GYLM | ≤ 0.2

Row | Variant | one-hybrid fitness for binding NBS DNA
27 | KSSS | ≤ 0.2
28 | MQGS | ≤ 0.2
29 | KSYM | ≤ 0.2
30 | FIPR | ≤ 0.2
31 | CLLS | ≤ 0.2
32 | CKQA | ≤ 0.2
33 | LCCT | ≤ 0.2
34 | CSVD | ≤ 0.2
35 | TSGN | ≤ 0.2
36 | KQMC | ≤ 0.2
37 | CLWP | ≤ 0.2
38 | QKYT | 0.511
39 | LLNL | ≤ 0.2
40 | KLWF | ≤ 0.2
41 | RTNH | 0.327
42 | QYNK | ≤ 0.2
43 | CSEF | ≤ 0.2
44 | SISW | ≤ 0.2
45 | ASHA | ≤ 0.2
46 | PHLF | ≤ 0.2
47 | IVST | ≤ 0.2
48 | CKGF | ≤ 0.2
49 | RQWW | ≤ 0.2
50 | LRQM | ≤ 0.2
51 | GTNY | ≤ 0.2
52 | RNST | 0.219

Row | Variant | one-hybrid fitness for binding NBS DNA
53 | QYKY | 0.479
54 | NHVR | ≤ 0.2
55 | RNHP | ≤ 0.2
56 | QWCS | ≤ 0.2
57 | DITE | ≤ 0.2
58 | PSIA | ≤ 0.2
59 | RRPH | 0.294
60 | KECG | ≤ 0.2
61 | QCIR | 0.476
62 | HRCG | ≤ 0.2
63 | QFYK | ≤ 0.2
64 | MSPN | ≤ 0.2
65 | CTDC | ≤ 0.2
66 | VKKI | ≤ 0.2
67 | TYVT | ≤ 0.2
68 | MDPV | ≤ 0.2
69 | SART | ≤ 0.2
70 | HGSA | ≤ 0.2
71 | VRYR | 0.239
72 | ALES | ≤ 0.2
73 | GNSK | ≤ 0.2
74 | WWAD | ≤ 0.2
75 | GASS | ≤ 0.2
76 | EFRC | ≤ 0.2
77 | DHCG | ≤ 0.2
78 | KVSL | ≤ 0.2

Row | Variant | one-hybrid fitness for binding NBS DNA
79 | LYHR | ≤ 0.2
80 | TSDY | ≤ 0.2
81 | NMVM | ≤ 0.2
82 | DFAL | ≤ 0.2
83 | GYPP | ≤ 0.2
84 | WHLV | ≤ 0.2
85 | LLEM | ≤ 0.2
86 | DMNT | ≤ 0.2
87 | TQRV | ≤ 0.2
88 | RGNT | ≤ 0.2
89 | VKKG | ≤ 0.2
90 | CPRI | ≤ 0.2
91 | VRAM | ≤ 0.2
92 | TAFE | ≤ 0.2
93 | AFDN | ≤ 0.2
94 | ASSI | ≤ 0.2
95 | MPRW | ≤ 0.2
96 | LCLF | ≤ 0.2
97 | DTYR | ≤ 0.2
98 | YLTQ | ≤ 0.2
99 | IGLD | ≤ 0.2
100 | HQSS | ≤ 0.2
101 | IVPL | ≤ 0.2
102 | MKSM | ≤ 0.2
103 | FLWC | ≤ 0.2
104 | SQMS | ≤ 0.2

Row | Variant | one-hybrid fitness for binding NBS DNA
105 | PMAV | ≤ 0.2
106 | PQMG | ≤ 0.2
107 | ACTW | ≤ 0.2
108 | TGMS | ≤ 0.2
109 | SDVV | ≤ 0.2
110 | LCHT | ≤ 0.2
111 | RMQK | ≤ 0.2
112 | VRET | ≤ 0.2
113 | KSYC | ≤ 0.2
114 | QTRH | 0.695
115 | LALS | ≤ 0.2
116 | TPQI | ≤ 0.2
117 | VPQR | ≤ 0.2
118 | MAYS | ≤ 0.2
119 | QHHN | ≤ 0.2
120 | FPGR | ≤ 0.2
121 | SCHM | ≤ 0.2
122 | KDLR | ≤ 0.2
123 | NSGS | ≤ 0.2
124 | RWPI | ≤ 0.2
125 | KVHD | ≤ 0.2
126 | PWCG | ≤ 0.2
127 | KQHG | ≤ 0.2
128 | MDPG | ≤ 0.2
129 | HVMY | ≤ 0.2
130 | PAAV | ≤ 0.2

Row | Variant | one-hybrid fitness for binding NBS DNA
131 | KQMT | ≤ 0.2
132 | LTRY | ≤ 0.2
133 | VETS | ≤ 0.2
134 | ICTL | ≤ 0.2
135 | IKIM | ≤ 0.2
136 | VWKG | ≤ 0.2
137 | QCYY | 0.275
138 | YTVM | ≤ 0.2
139 | YSSS | ≤ 0.2
140 | LKLC | ≤ 0.2
141 | YLLD | ≤ 0.2
142 | AYKC | ≤ 0.2
143 | TLCW | ≤ 0.2
144 | LFRD | ≤ 0.2
145 | LEKS | ≤ 0.2
146 | MIWS | ≤ 0.2
147 | KDRV | ≤ 0.2
148 | RTLG | ≤ 0.2
149 | LTWI | ≤ 0.2
150 | QVNC | ≤ 0.2
151 | PSPG | ≤ 0.2
152 | PYAG | ≤ 0.2
153 | TKKV | ≤ 0.2

Source: a collection of fitness landscapes (doi:10.1016/j.celrep.2020.107928)
